The campaign covered roughly 310,000 compounds. About 2,200 (0.71%) showed an effect of 50% or more. The effect is printed as a negative number. This is one part of the list.
molecular target: human ether-à-go-go-related gene (hERG) potassium channel (human, UniProt Q12809); test: primary screen, population patch clamp on CHO cells stably expressing hERG
Sequence (Q12809 whole entry, looked up): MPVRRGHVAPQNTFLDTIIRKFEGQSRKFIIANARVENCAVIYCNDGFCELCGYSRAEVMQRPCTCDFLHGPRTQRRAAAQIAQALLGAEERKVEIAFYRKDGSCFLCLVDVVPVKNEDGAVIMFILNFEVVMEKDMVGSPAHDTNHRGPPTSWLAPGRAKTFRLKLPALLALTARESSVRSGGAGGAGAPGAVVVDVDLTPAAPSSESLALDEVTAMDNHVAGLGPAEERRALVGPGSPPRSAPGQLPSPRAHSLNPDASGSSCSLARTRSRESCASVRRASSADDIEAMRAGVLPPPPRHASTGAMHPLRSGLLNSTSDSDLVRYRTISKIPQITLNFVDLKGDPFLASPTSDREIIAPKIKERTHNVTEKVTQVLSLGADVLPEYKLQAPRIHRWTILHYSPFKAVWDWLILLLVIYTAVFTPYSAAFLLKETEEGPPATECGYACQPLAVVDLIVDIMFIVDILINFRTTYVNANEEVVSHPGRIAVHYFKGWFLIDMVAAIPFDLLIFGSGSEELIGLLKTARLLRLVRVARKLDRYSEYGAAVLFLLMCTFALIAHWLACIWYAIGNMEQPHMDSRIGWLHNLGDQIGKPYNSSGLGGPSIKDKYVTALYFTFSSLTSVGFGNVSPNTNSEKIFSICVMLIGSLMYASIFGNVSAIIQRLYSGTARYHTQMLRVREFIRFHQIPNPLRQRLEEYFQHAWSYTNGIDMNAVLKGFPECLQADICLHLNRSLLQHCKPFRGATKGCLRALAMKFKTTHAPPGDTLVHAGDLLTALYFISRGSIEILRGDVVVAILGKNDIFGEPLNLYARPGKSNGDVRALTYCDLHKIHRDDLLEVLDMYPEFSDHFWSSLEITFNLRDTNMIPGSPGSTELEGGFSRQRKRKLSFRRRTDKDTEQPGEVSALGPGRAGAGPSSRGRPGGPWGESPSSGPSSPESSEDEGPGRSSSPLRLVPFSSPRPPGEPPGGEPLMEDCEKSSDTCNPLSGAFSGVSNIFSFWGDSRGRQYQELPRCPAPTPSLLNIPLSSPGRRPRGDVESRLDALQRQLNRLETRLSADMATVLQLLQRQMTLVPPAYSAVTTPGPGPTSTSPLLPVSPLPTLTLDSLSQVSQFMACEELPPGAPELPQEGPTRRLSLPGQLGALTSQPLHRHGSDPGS

Row | SMILES | hERG current change (%, negative = inhibition) at 1uM [%]
1 | OCCC1CN(Cc2ccc(C(F)(F)F)cc2)CCN1Cc1ccccc1 (stereo not shown) | -10.6
2 | CN1C(N)=NC(=O)/C1=C\c1ccc(Br)cc1 | 15
3 | Cc1cccc(N2CCN(S(=O)(=O)c3ccc(-c4coc(C)n4)cc3)CC2C)c1 (stereo not shown) | 8.13
4 | COC(=O)C1=CN(CC2CCCO2)C=C(C(=O)OC)C1c1cccc(O)c1 (stereo not shown) | 3.32
5 | CCCCSc1nc(O)c(Cc2ccccc2)c(=O)[nH]1 | 5.56
6 | Fc1ccc(NCc2nnc(SCc3nnc(-c4ccccc4)o3)n2CC2CCCO2)cc1 (stereo not shown) | -28.3
7 | COc1ccc(C(=O)/C=C/c2ccc3c(c2)OCCO3)cc1 | 18.7
8 | CCOC(=O)C(NC(=O)c1ccccc1)(OCc1ccc(F)cc1)C(F)(F)F (stereo not shown) | 9.79
9 | CC1(C(=O)NC2CCCCCCC2)CCC(=O)N1CCN1CCOCC1 (stereo not shown) | 15.6
10 | CCOCCc1nnc(NC(=O)CCc2ccccc2)s1 | 13.8
11 | CCOC(=O)C1(C)/C(=N/Nc2ccc(Cl)cc2)C(=O)C(=O)N1c1ccccc1 (stereo not shown) | 2.83
12 | CCCOc1ccc(N2C(=O)CC(SC(=NCC)Nc3cccc(F)c3)C2=O)cc1 (stereo not shown) | 9.67
13 | COc1ccc(NC(=O)C2CCCN2S(=O)(=O)c2cccs2)c([N+](=O)[O-])c1 (stereo not shown) | 2.01
14 | CCn1c(=O)c2ccccc2n2c(SCC(N)=O)nnc12 | 14.1
15 | CCOc1ccc(OCCC(=O)OCC(=O)NNC(=O)c2ccccc2)cc1 | 16.3
16 | CC(OC(=O)c1cccs1)C(=O)NCc1ccc2c(c1)OCO2 (stereo not shown) | 18.6
17 | Cc1ccnc(NC(=O)c2ccc3c(c2)C(=O)N(CCC(C)C)C3=O)c1 | 13.2
18 | CN(C)S(=O)(=O)c1cccc(C(=O)OCC(=O)Nc2ccc3c(c2)OCCO3)c1 | 15.7
19 | Cc1nc2c(C)cccc2cc1C(=O)N/N=C/c1ccc(N(C)C)cc1 | -4.58
20 | CNC(=O)NC(=O)CSc1ncc(C(F)(F)F)cc1Cl | -0.143
21 | CCn1nc(C)cc1C(=O)NC1CC(C)(C)Cc2c1cnn2-c1cccc(F)c1 (stereo not shown) | -2.13
22 | CCOCCOC(=O)C1=C(C)Nc2ccc(C)cc2S1 | 1.18
23 | COC(=O)c1nn(-c2ccc(OC)cc2)c(=O)cc1NN | 22.4
24 | CC1C/C(=N\NC(=O)c2cccnc2)CC(C)(C)C1 (stereo not shown) | 1.77
25 | CCOc1cc(CNCCO)cc(Br)c1OCc1ccc(Cl)cc1Cl.Cl | 11.4

Source: article PMC4336329 (PLoS ONE, 2015)
